According to PubChem BioAssay AID488969 (Vanderbilt High Throughput Screening Facility, 2010):
Whole data set: some 110,000 compounds, median “z-score” near -0.1, cut for the highest 2% near 2. This is one part of the list. The source made the active and inactive calls.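 The calls were made as follows: active = z-score in the third read window above 3 or below -3; inactive = the rest.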

target: Metabotropic glutamate receptor 8 (Rattus norvegicus) (UniProt P70579); test: rat mGluR8 modulators via GIRK flux, primary screen, cell-based, thallium flux, HTS (AID 488969); conditions: HEK293 rat mGluR8, GIRK (G protein-gated inwardly rectifying potassium channel) thallium flux, FluoZin2; at 10 µM; stronger effect = higher value; submaximal glutamate (EC20) added with thallium
UniProt P70579, sequence (P70579 whole entry, looked up): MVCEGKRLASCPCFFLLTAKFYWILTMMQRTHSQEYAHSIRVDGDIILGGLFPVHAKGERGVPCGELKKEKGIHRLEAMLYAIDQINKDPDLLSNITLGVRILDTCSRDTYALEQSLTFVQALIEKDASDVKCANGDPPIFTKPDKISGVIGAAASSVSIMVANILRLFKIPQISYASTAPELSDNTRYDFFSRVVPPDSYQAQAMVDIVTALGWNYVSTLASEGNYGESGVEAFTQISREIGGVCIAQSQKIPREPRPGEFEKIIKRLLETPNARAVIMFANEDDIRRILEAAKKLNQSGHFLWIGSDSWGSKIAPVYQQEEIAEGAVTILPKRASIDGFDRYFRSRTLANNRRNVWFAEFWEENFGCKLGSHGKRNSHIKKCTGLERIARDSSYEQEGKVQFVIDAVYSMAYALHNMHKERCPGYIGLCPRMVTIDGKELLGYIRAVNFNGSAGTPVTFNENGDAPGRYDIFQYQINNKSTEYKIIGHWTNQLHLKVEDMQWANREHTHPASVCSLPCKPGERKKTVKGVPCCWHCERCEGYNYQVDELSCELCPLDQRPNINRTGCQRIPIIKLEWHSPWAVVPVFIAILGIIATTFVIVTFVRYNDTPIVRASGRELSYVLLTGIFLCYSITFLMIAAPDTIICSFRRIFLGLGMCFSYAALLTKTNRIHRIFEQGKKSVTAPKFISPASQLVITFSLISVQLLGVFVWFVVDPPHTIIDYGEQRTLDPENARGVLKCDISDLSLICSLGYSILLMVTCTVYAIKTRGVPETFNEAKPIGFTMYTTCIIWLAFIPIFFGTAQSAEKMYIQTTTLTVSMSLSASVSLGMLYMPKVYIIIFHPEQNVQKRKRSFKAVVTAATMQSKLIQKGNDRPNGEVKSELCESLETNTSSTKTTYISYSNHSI

Compound	z-score
CC(C)(C)c1ccc(S(=O)(=O)n2c(CN3CCOCC3)nc3ccccc32)cc1	0.216
Cc1sc(NC(=O)CCCC(=O)O)c(C#N)c1C	0.257
O=C(c1ccccc1)N1CCC(c2nc3c(nnn3Cc3ccco3)c(=O)[nH]2)CC1	-0.734
CCCn1nc(C(=O)OCn2nnc3ccccc3c2=O)c2ccccc2c1=O	-0.347
CCc1nc(NCc2cccnc2)c2oc3ccccc3c2n1	-0.638
CC(C)COC(=O)c1nnsc1NC(=O)Nc1ccccc1	0.142
CCN1CCN(C(=O)c2ccc(Cl)c(S(=O)(=O)N3CCOCC3)c2)CC1	-0.568
COC(=O)c1[nH]c2ccc(Br)cc2c1NC(=O)CN1CCCCC1CCO (stereo not drawn)	-0.0868
Oc1ccc(-c2n[nH]c(=S)n2-c2ccc3c(c2)OCCO3)cc1	-0.229
Cc1cc(C(=O)NCc2cccs2)no1	-0.109
CCn1cnc2cc(NS(=O)(=O)c3ccc(C)cc3)ccc21	-0.424
Cc1cc(NC(=O)CSc2nc3c([nH]c4ccccc43)c(=O)n2-c2cccc(C(F)(F)F)c2)no1	0.588
Cc1cc(C)c2c(CC(=O)N(CCC#N)Cc3cccnc3)coc2c1	-0.0341
CCn1cc(C(=O)NCCOC)c(=O)c2ccc(C)nc21	0.601
CNc1oc(-c2cccc3ccccc23)nc1C#N	0.758
S=c1[nH]nc(COc2ccccc2)n1Cc1ccccc1	0.364
COC(=O)c1ccc(CNC(=O)COC(=O)C23CC4CC(CC(C4)C2)C3)cc1	0.179
CC(=O)Nc1ccc2c(c1)CCCN2C(=O)c1ccccc1	-0.0583
CCOC(=O)CCSc1nc2c(c(C(F)(F)F)c1C#N)CCC2	-0.394
O=C(/C=C/c1ccc(Cl)cc1)NC(=S)Nc1ccc(NC(=O)c2ccco2)cc1	-0.669
COc1ccc(/C=C/C(=O)Nc2ccc(-c3nnc4n3CCCCC4)cc2)c(OC)c1	-0.328
CCc1ccc(S(=O)(=O)N(C(=O)c2ccncc2)c2ccc(OC(=O)c3ccncc3)cc2)cc1	-0.659

Compound	z-score
CCN(CC)CCCn1c(C)cc2c(c1=O)C(c1ccc(OC)c(OC)c1OC)C(C#N)=C(N)O2 (stereo not drawn)	-0.47
O=C(CNC(=O)c1ccc(Cl)cc1)OCC(=O)c1ccc2c(c1)OCCO2	-0.0625
CN1CCN(Cc2cccc(Oc3ccc(Cl)cc3)c2)CC1	active: 4
COc1ccc(-c2cc(C(=O)Nc3c(C)nn(Cc4ccccc4Cl)c3C)no2)cc1OC	-0.0235
CCCOC(=O)CSc1nnc(-c2cc(OC)c(OC)c(OC)c2)o1	-0.52
COc1ccc(C2Nc3ccccc3C(=O)N2O)cc1CN1CCOCC1 (stereo not drawn)	0.994
CCCC1C2C(=O)N(c3ccc(OC)cc3)C(=O)C2ON1c1ccccc1 (stereo not drawn)	-0.375
O=C(C(=O)N1CCCc2ccccc21)N1CCCc2ccccc21	0.0396
COc1ccc2nc3oc(C(=O)N4CCN(c5cccc(C(F)(F)F)c5)CC4)cc3cc2c1	0.0948
C=CCn1c(=O)c2ccccc2n2c(SCC(N)=O)nnc12	-0.0528
CCNC(=O)N1CCNC(=O)C1CC(=O)Nc1ccc(C(=O)OCC)cc1 (stereo not drawn)	-0.0401
Cc1ccc(CNCC(O)(c2ccc(F)cc2)c2ccc(F)cc2)cc1	0.221
CCN(c1ccccc1)c1ncnc2c1cnn2-c1ccccc1	-0.478
O=C(NCc1ccc2c(c1)OCO2)c1cccc(S(=O)(=O)N2CCOCC2)c1	0.239
COc1ccc(-c2cc(C(F)(F)F)n3ncc(C(=O)NCC4CCCO4)c3n2)cc1OC (stereo not drawn)	-0.475
CC12COC3(C(=O)NCCc4ccccc4)CC1CCC32C (stereo not drawn)	-0.0777
c1coc(-c2nc3c([nH]2)CCc2nonc2-3)c1	-0.161
CCCCC(c1nnnn1CS(=O)(=O)c1ccc(C)cc1)N1CCN(c2ccccc2)CC1 (stereo not drawn)	0.13
Cc1ccc(F)cc1NC(=S)NCCc1ccccc1	0.631
COc1cccc(SCc2noc(C(=O)NC(C)C)c2C(=O)O)c1	0.165
COc1ccc2c(c1)-c1nc(/N=C/c3ccccc3O)sc1CC2	0.0977
COC(=O)C1=C(O)/C(=C\c2ccc(CNS(=O)(=O)c3ccc(Cl)cc3)o2)N=C1C	0.0108

Compound	z-score
Cc1ccc(NC(=O)CSc2nnc(CSc3nc(C)cc(C)n3)n2Cc2ccco2)c(C)c1	-0.976
CC(C)(C)n1nc2c(c1NC(=O)c1ccc(S(=O)(=O)N3CCCC3)cc1)CSC2	0.622
COc1cc2c(cc1NC(=O)C(C)N1CCN(S(=O)(=O)c3ccc(C)c(C)c3)CC1)oc1ccccc12 (stereo not drawn)	0.0628
O=C(Cn1cc2c(n1)CCCC2)NCCCN1CCN(Cc2ccccc2)CC1	-0.235
O=S(=O)(NCCNS(=O)(=O)c1cccs1)c1cccs1	-0.0845
O=C(Nc1ccc(C(=O)N2CCCC2)cc1)c1ccc2c(c1)OCO2	-0.179
CC(C)(C)NC(=O)CSC(=Nc1cccc(F)c1)NC#N	-0.0036
O=C(Cn1cc(C(F)(F)F)ccc1=O)N1CCN(S(=O)(=O)c2ccc(Cl)cc2)CC1	0.613
Cc1cc2cc3c(cc2nc1SCC(=O)OC(C)C)OCO3	-0.048
CCCCN(CCCC)CC1OCc2ccccc2CO1	-0.236
CN1c2ccccc2C(C)(C)C12C=Nc1c(cc(N3CCOCC3)c3ccccc13)O2 (stereo not drawn)	-0.341
COc1ccc(CN(C)C(c2ccccc2)c2nnnn2-c2ccccc2C)c(OC)c1C (stereo not drawn)	0.0742
CCOC(=O)C1CCN(C(=O)Nc2ccc(OC)c(OC)c2)CC1	-0.541
CCOC(=O)C(=O)Nc1ccc(F)cc1	-1.25
Cc1cccc(OCCCSc2nc3ccccc3[nH]2)c1	0.357
COc1ccc2c(c1)cc1n2CCN=C1N	0.0614
O=[N+]([O-])c1ccc2nc(SCc3cn4ccccc4n3)[nH]c2c1	0.0122
COc1ccccc1CNc1n[nH]c(NCc2ccccc2OC)n1	-0.0655
O=C1Nc2ccc(Br)cc2C1=Nc1ccc(-c2nnc3n2CCCCC3)cc1	0.0931
CC(=O)c1ccc(OCC(C)C)c(CN2CCCCC2)c1	0.157
O=C(/C=C\c1ccco1)Nc1cc([N+](=O)[O-])ccc1F	-0.392
O=C(O)c1ccc(NC2=C(N3CCOCC3)C(=O)c3ccccc3C2=O)cc1	0.558

Compound	z-score
Cc1ccc(CN2CCS(=O)(=O)CC2)cc1	-0.0985
c1cncc(-c2csc(NCc3ccco3)n2)c1	-0.505
O=C(CCCOc1ccccc1)NC1CCCc2ccccc21 (stereo not drawn)	-0.271
Cc1cc[n+](CC(=O)c2ccc3c(c2)OCCO3)cc1	-0.107
CCC(=O)N1CCc2cc(Br)cc(S(=O)(=O)CCC(=O)NCc3ccco3)c21	-0.0579
CCc1nnc(SCC(=O)Nc2ccc3c(c2)OCO3)o1	1.2
CC(C)c1ccc(NC(=O)CCN2C(=O)c3ccc([N+](=O)[O-])cc3C2=O)cc1	-0.171
CCNc1nc(N)nc(Oc2ccc(C(=O)OC)cc2)n1	-0.158
C[C@@H](Nc1nc(-c2ccccc2)nc2c1oc1ccccc12)C(=O)O	-0.8
CC(C)[C@@H](C(=O)OCC(=O)Nc1ccc2c(c1)OCO2)N1C(=O)c2ccccc2C1=O	-0.283
COc1ccc(C2=NN(C(=O)c3cccnc3)C(c3ccccc3)C2)cc1 (stereo not drawn)	-0.497
CNC(=O)C(=O)NCC1OCCCN1S(=O)(=O)c1cccs1 (stereo not drawn)	-0.354
COc1ccc(C(=O)Cn2c(Br)nc3c2c(=O)n(C)c(=O)n3C)cc1	-0.191
Cc1ccc(S(=O)(=O)n2c3ccc(Cl)cc3c3nc(C)sc32)cc1	-0.333
COc1ccc(C)cc1NC(=O)C(OC(=O)c1ccc([N+](=O)[O-])o1)c1ccccc1 (stereo not drawn)	-0.35
CSC(=S)N/N=C/c1c[nH]c2ccccc12	1
COc1ccc(N(C)C(=S)Nc2ccc3nc(C)c(C)nc3c2)cc1	-0.172
Cn1c2c(c(=O)n(C)c1=O)[C@@H]1c3c(ccc4ccccc34)OC[C@@H]1CO2	-0.213
COc1ccc2c(c1)CC/C(=C\C=C\c1ccccc1)C2=O	-0.177
COc1ccc(CNC(=O)C2CCCN(S(=O)(=O)c3cnc[nH]3)C2)cc1 (stereo not drawn)	-0.309
O=C(NCCCN1CCCC1=O)c1ccc2c(c1)NC(=O)C(N1CCOCC1)S2 (stereo not drawn)	-0.0714
COc1ccc(C)cc1-n1nnnc1SCC(=O)Nc1cccnc1Cl	-0.0944

Compound	z-score
COc1cc2cc(C(=O)O)[nH]c2c(OC)c1OC	0.221
c1ccc2c(c1)oc1c(N3CCN(Cc4ccc5c(c4)OCO5)CC3)ncnc12	0.968
COCC(C)n1c(C)cc(C(=O)CSc2nc3ccccc3c(=O)[nH]2)c1C (stereo not drawn)	-0.0493
CCCC(=O)N1c2ccccc2NC2=C(C(=O)CCC2)C1c1ccc(F)cc1 (stereo not drawn)	0.527
Cc1cc(=O)[nH]c(SCc2nnnn2-c2ccc(Cl)cc2)n1	0.00954
CCn1c(SCc2nc3ccccc3[nH]2)nnc1-c1ccncc1	-0.167
COCc1cc(=O)[nH]c2cc(NC(=O)C3CC3)c(C)cc12	0.0867
COc1cccc(NC(=O)CN2CCN(S(=O)(=O)c3ccc(F)cc3)CC2)c1	-0.138
Cc1ccc2c(c1)-c1nc3ccccc3cc1C2=NC1CCCCC1	-0.156
CCN(CC)C(=O)CSCc1cnn(-c2ccccc2)c1-n1cccc1	0.216
COc1cc(C(=O)OCC(=O)c2cc(C)n(C)c2C)cc(NC(=O)c2ccco2)c1OC	-1
Cc1nc2ccc(C(=O)OCc3ccccc3Br)cc2nc1C	-0.339
Cc1ccc(NC(=O)CSc2nnc([C@@H]3CCCN3C(=O)OC(C)(C)C)o2)c(C)c1	-0.259
O=[N+]([O-])c1cc(C(F)(F)F)ccc1Sc1ccc2ccccc2n1	-0.0338
COc1ccc(-n2c(N)c(C(=O)NCC3CCCO3)c3nc4ccccc4nc32)c(OC)c1 (stereo not drawn)	-1.74
N#CC(c1ccccn1)(c1ncc(C(F)(F)F)cc1Cl)N1CCOCC1 (stereo not drawn)	-0.113
CCN1CCC2(CC1)C(C#N)=C(N)Oc1c2sc2nc(C)cc(C)c12	-1
Cc1ccc(S(=O)(=O)N[C@H](C(=O)Oc2ccc3c(C(F)(F)F)cc(=O)oc3c2)c2ccccc2)cc1	-0.201
O=C(O)COc1ccc(S(=O)(=O)NCCc2ccccc2)cc1	-0.144
COc1cc(OC)c(C(=O)Nc2cccc(C(C)=O)c2)cc1OC	0.271
